# Results taken from PubChem BioAssay AID540267 (National Center for Advancing Translational Sciences (NCATS), 2011).
# In all, about 340,000 compounds went through this assay and about 530 (0.16%) were called active. This list was built around the results that the source calls inconclusive (neither active nor inactive); the mix of calls is not that of the screen. No stated cut-off is given here; in the data, active means activity change below about -80%; inconclusive means between about -30% and that limit; inactive means weaker than that.
# Test: Small Molecules that selectively kill Giardia lamblia: qHTS;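 further: parasites exposed to compound for two days anaerobically before the ATP read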
# Settings: Giardia lamblia trophozoite viability; at 7.66 µM; stronger effect = lower value
# Summary of the method: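 Viability, read as ATP luminescence: trophozoites at 100 cells/well, compound added, 48 hrs anaerobic at 37 deg C, then 15-30 min room-temperature development before reading.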
# On the % scale 0 is the no-effect control and ±100 the full control effect.
row,Compound,activity change
1,CCn1ccnc1CN(C)C(=O)C1CCC(=O)N(CCc2cccc(F)c2)C1 (stereo not given),inactive: -8.53%
2,CC(C(=O)NC1C=CS(=O)(=O)C1)N1C(=O)/C(=C\c2ccccc2)SC1=S (stereo not given),inactive: 8.82%
3,CCOC(=O)c1nnn(-c2nc(N3CCCC3)nc(N3CCCC3)n2)c1-c1ccccc1,inactive: -0.315%
4,O=C(Nc1ncccn1)c1cc(-c2cccc(Br)c2)nc2ccccc12,inconclusive: -33.5% [inhibitor]
5,COc1cc(C(=O)OCc2cc(=O)c(O)co2)ccc1OC(F)F,inconclusive: -43.4% [inhibitor]
6,CCCCC(NC(C)=O)c1nc2ccccc2[nH]1 (stereo not given),inactive: 16.5%
7,O=C(CCN1C(=O)c2ccccc2C1=O)N1CCCCCC1,inconclusive: -36.9% [inhibitor]
8,COc1cc(C(=O)Nc2sc3c(c2C#N)CCN(C(C)=O)C3)cc(OC)c1OC,inconclusive: -37.2% [inhibitor]
9,CCC(C(=O)NC(C)(C)C)N(Cc1ccc(F)cc1)C(=O)c1snc(C(N)=O)c1N (stereo not given),inactive: 15.6%
10,CCC1CCCCN1C(=O)CCCOc1ccccc1 (stereo not given),inactive: 7.97%
11,O=C(CSCc1ccc(Br)cc1)NCCc1ccccc1,inactive: 9.18%
12,COc1ccc2cc(C[C@@H]3CC[C@@H](CO)O3)ccc2c1,inconclusive: -44.9% [inhibitor]
13,COc1ccc(S(=O)(=O)N2CCCCC2)cc1NC(=O)c1ccc([N+](=O)[O-])o1,active: -94.9%
14,CCn1cc(Br)c(C(=O)Nc2ccc(C(=O)OC(C)C)cc2)n1,inactive: -15.9%
15,O=C(Cn1ccc([N+](=O)[O-])n1)N1CCCCC1,inconclusive: -43.4% [inhibitor]
16,COc1ccc(CNC(=O)CSc2nc3cccnc3s2)cc1,inconclusive: -33.2% [inhibitor]
17,CC(C)(C)OC(=O)[C@H](CCCCN)NC(=O)c1nc[nH]c1C(=O)NCCCCCN,inconclusive: -31.6% [inhibitor]
18,Cc1cc(/C=C(\C#N)c2nc3ccccc3[nH]2)c(C)n1C,inactive: -20.8%
19,COC(=O)CN(Cc1ccco1)S(=O)(=O)c1ccccc1,inactive: -2.5%
20,CCOC(=O)C1(N(CC)CC)Sc2cc(C)ccc2NC1=O (stereo not given),inactive: 0.362%
21,O=C(Nc1cccc(S(=O)(=O)N2CCCCC2)c1)c1ccccc1NS(=O)(=O)c1ccc(F)cc1,inactive: -0.296%
22,O=C(CCC1CCCN(C(=O)c2ccc3c(c2)OCO3)C1)NCc1ccc(F)c(F)c1 (stereo not given),inactive: -8.01%
23,O=C(O)c1ccc(N/N=C/c2cc3cc4c(cc3nc2Cl)OCCO4)cc1,active: -88.4%
24,COc1ccccc1CCC(=O)OCC(=O)Nc1cc(S(=O)(=O)N2CCOCC2)ccc1C,inconclusive: -33% [inhibitor]
25,Cc1cccc(CSC2=NCCN2C(=O)c2ccc(Br)o2)c1,inconclusive: -32.7% [inhibitor]
26,CCCCn1nnnc1SCC(=O)Nc1sc2c(c1C#N)CCCC2,inactive: -2.2%
27,CCCCn1c(SCC(=O)c2ccc(O)cc2O)nc2cc(S(N)(=O)=O)ccc21,inactive: 9.03%

row,Compound,activity change
1,Cc1nc(NC(=O)C2CCCCC2C(=O)O)sc1C (stereo not given),inconclusive: -33.8% [inhibitor]
2,CCOC(=O)N1CCC(NC(=O)CS(=O)Cc2nc(-c3ccc(Cl)cc3)oc2C)CC1 (stereo not given),inactive: 51.9%
3,Cc1cc(C)c[n+](CC(=O)c2ccc(NC(=O)c3ccccc3)cc2)c1,inconclusive: -33% [inhibitor]
4,CN(C(=O)CN1C(=O)c2ccc([N+](=O)[O-])cc2C1=O)C1CCCCC1,inactive: -1.19%
5,Cc1onc(-c2ccccc2Cl)c1C(=O)O/N=C(\N)c1ccc([N+](=O)[O-])o1,inconclusive: -58.8% [inhibitor]
6,COc1ccc(/C=N/NC(=O)c2ccc(NC(C)=O)cc2)cc1COc1ccc(F)cc1F,inactive: 11%
7,COc1ccc(-c2cn3cc([N+](=O)[O-])ccc3n2)cc1OC,inconclusive: -53.5% [inhibitor]
8,COC(=O)C1=C(COc2ccccc2)NC(=O)NC1c1ccc2ccccc2c1 (stereo not given),inconclusive: -31.1% [inhibitor]
9,N#Cc1cccc(C(=O)Nc2ccccc2C(=O)NC2CC2)c1,inconclusive: -33.5% [inhibitor]
10,Cc1ccccc1-c1nc(CN(Cc2c(C)nn(C)c2C)C2CC2)c(C)o1,inactive: 18.2%
11,COc1ccc(S(=O)(=O)Nc2ccccc2C(=O)NCc2ccco2)cc1Br,inactive: -2.81%
12,OC(CN1CCN(c2ccccc2)CC1)c1ccc2c(c1)CCN2 (stereo not given),inconclusive: -34.2% [inhibitor]
13,COC(=O)c1ccc(C2/C(=C(\O)c3cccc(OC)c3)C(=O)C(=O)N2CCCN(C)C)cc1 (stereo not given),inconclusive: -30.2% [inhibitor]
14,O=C(Nc1ccccc1)OCCNC1CCCCC1,inconclusive: -35.7% [inhibitor]
15,CC1CN(C2CCN(S(=O)(=O)c3ccccc3)CC2)CC(C)O1 (stereo not given),inactive: 0.867%
16,Cc1ccc(C(=O)Nc2cc(C)c(OCC(=O)N3CCOCC3)c(C)c2)cc1,inconclusive: -75.1% [inhibitor]
17,COc1ccccc1NC(=O)c1ccc2c(c1)N(CC(=O)NC(C)C)C(=O)C(C)(C)O2,inactive: 11.6%
18,O=S(=O)(c1ccccc1)N1CCN(c2nnc(-c3ccccc3)c3ccccc23)CC1,inactive: -2.42%
19,CCOc1cc(N2CCOCC2)c(OCC)cc1NC(=O)COc1cccc(CC)c1,inactive: -8.1%
20,O=C(C1=C[C@H](c2ccc(Br)cc2)C[C@H](OCc2ccc(CO)cc2)O1)N1CCN(Cc2ccc3c(c2)OCO3)CC1,inconclusive: -33.3% [inhibitor]
21,CN1c2ccccc2C(=O)NC1c1ccc(Cl)cc1 (stereo not given),inconclusive: -44% [inhibitor]
22,O=C(CCS(=O)(=O)c1ccccc1)OCc1ccc([N+](=O)[O-])cc1,inconclusive: -32.9% [inhibitor]
23,Cc1c(Cl)cccc1N=c1c([N+](=O)[O-])nn(-c2ccccc2)n1O,inconclusive: -79.8% [inhibitor]
24,COc1ccc(-c2cc3ccccc3oc2=O)cc1NC(=O)c1ccc(Br)o1,inactive: 8.8%
25,Cc1nnc(N/N=C/c2ccccc2F)n1N,inactive: 5.02%
26,O=c1[nH]c2cccnc2n1-c1cccc([N+](=O)[O-])c1,inconclusive: -40.6% [inhibitor]
27,Cc1c(C(=O)NCc2n[nH]c(=S)n2-c2ccc(F)cc2)cccc1[N+](=O)[O-],inactive: -2.65%

row,Compound,activity change
1,COc1ccc(C(=O)N2CCN(c3nc(C4CC4)nc4sc(C)c(C)c34)CC2)cc1,inconclusive: -37.1% [inhibitor]
2,COc1ccccc1NS(=O)(=O)c1ccc(C)c(C(=O)NC2=NCCS2)c1,inconclusive: -36.4% [inhibitor]
3,O=C(CNc1cccc([N+](=O)[O-])c1)N/N=C/c1ccc([N+](=O)[O-])o1,active: -107%
4,CC(=O)c1cccc(NS(=O)(=O)c2ccc3c(c2)oc(=O)n3C)c1,inactive: 11.7%
5,CCOc1ccc2nc(SCC(=O)Nc3cc(C)on3)c(C)cc2c1,inconclusive: -33.8% [inhibitor]
6,CCN(CC)c1ccc2c(c1)oc(=O)c1c(Cl)cc(=O)oc12,inconclusive: -31.6% [inhibitor]
7,O=C(COc1ncnc2ccc(Br)cc12)NC1CCCC1,inconclusive: -30.4% [inhibitor]
8,COC(=O)c1[nH]c2ccc(Br)cc2c1NC(=O)CN1CCN(C2CCCCC2)CC1,inconclusive: -35.5% [inhibitor]
9,Cc1cccc(N(Cc2cc(=O)[nH]c3ccccc23)C(=O)C(C)C)c1,inconclusive: -34% [inhibitor]
10,Cc1ccc(Oc2ccc(S(=O)(=O)N3CCOCC3)cc2C(N)=O)cc1C,inconclusive: -33.2% [inhibitor]
11,COc1cccc(N2CCN(C(=O)c3cn(Cc4ccccc4)nc3-c3cccnc3)CC2)c1,inconclusive: -32.2% [inhibitor]
12,CC(C)(C)NC(=O)C1CC(=O)N(CCc2ccc(F)cc2)C1 (stereo not given),inactive: -17.7%
13,COc1ccc(N2CC(C(=O)NCc3ccco3)CC2=O)cc1 (stereo not given),inconclusive: -30.6% [inhibitor]
14,Cc1cccc(-c2noc(C(C)NC(=O)c3ccco3)n2)c1 (stereo not given),inactive: 7.11%
15,CC1CCCC(C)N1C(=O)Cn1cc(/C=C2/C(=O)Nc3ccccc32)c2ccccc21 (stereo not given),inactive: -4.77%
16,O=C(NC1CC1)c1ccc(N2CCCCC2)c([N+](=O)[O-])c1,inconclusive: -32.9% [inhibitor]
17,CCc1cccc(CC)c1NC(=S)Nc1ccc2cn[nH]c2c1,inconclusive: -31.2% [inhibitor]
18,O=C(Nc1cccnc1)c1cc(-c2ccc(Br)cc2)on1,inconclusive: -39.8% [inhibitor]
19,C/C(CC(=O)Nc1ccc2c(c1)OCCO2)=N\NC(=O)c1ccccc1F,inactive: -7.73%
20,COC(=O)c1nn(-c2ccc3c(c2)CCN3C(C)=O)cc1O,active: -87.1%
21,O=C(CNC(=O)c1cccs1)N=Nc1c(O)[nH]c2ccc(Br)cc12,inconclusive: -31.1% [inhibitor]
22,COc1ccc(C(=O)NC(=O)Nc2cc(C)ccn2)cc1,inconclusive: -78.1% [inhibitor]
23,COc1ccc(/C(C)=N/NC(=O)CNC(=O)Cc2ccccc2)c(OC)c1,inconclusive: -32.7% [inhibitor]
24,Cc1cc(C)cc(NC(=O)CSc2nnnn2-c2cccnc2)c1,inactive: -11.2%
25,O=C(N/N=C\c1ccc2c(c1)OCO2)c1cncc(Br)c1,inconclusive: -32% [inhibitor]
26,O=C(N/N=C/c1ccccc1)c1ccc(NC(=O)c2ccc(F)cc2)cc1,inactive: 10.8%
